# About 14,000 (4.5%) of roughly 310,000 compounds showed an effect of 50% or more. Effects have a minus sign here. Some of the results follow.
# Molecular target: human ether-à-go-go-related gene (hERG) potassium channel (human, UniProt Q12809)
# Assay: primary screen, population patch clamp on CHO cells stably expressing hERG
# 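Also: peak tail current of the secondary pulse compared with the same well before compound.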
# Chain of human ether-à-go-go-related gene (hERG) potassium channel (Q12809 whole entry, looked up): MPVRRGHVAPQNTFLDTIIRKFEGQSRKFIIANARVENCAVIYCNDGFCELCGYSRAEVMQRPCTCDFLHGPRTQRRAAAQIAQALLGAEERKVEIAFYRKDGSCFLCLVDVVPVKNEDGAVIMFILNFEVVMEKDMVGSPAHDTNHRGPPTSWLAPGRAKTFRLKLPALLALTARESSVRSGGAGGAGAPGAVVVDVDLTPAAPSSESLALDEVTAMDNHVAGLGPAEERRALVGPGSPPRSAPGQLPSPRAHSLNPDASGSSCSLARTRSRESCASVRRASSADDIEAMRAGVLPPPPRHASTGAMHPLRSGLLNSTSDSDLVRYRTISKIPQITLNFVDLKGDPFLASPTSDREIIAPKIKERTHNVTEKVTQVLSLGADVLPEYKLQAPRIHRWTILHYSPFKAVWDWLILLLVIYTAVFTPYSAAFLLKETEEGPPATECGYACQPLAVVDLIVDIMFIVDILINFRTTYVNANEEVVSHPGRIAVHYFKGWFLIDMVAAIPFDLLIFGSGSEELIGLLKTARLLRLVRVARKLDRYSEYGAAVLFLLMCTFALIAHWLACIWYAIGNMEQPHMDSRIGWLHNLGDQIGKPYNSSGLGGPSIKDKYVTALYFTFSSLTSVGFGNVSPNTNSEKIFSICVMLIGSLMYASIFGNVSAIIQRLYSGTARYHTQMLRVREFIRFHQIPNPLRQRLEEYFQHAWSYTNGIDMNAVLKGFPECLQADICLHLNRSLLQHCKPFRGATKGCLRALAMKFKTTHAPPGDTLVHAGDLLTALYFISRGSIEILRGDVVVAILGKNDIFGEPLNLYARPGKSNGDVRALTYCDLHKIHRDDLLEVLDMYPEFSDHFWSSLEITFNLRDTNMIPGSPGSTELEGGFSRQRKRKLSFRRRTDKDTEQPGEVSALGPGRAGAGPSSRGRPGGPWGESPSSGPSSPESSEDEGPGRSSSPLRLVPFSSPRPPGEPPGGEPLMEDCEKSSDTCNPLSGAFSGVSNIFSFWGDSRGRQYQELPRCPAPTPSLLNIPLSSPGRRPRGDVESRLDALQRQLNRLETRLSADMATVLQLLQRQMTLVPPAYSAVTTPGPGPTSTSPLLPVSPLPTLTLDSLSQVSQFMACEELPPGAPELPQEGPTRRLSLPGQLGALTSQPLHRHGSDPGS
row,Compound,"hERG current change (%, negative = inhibition) at 10uM [%]"
1,Cc1ccc(NC(=O)CCOc2ccccc2C)cc1C,1.72
2,O=C(CCC(=O)N1CCOc2ccccc21)NCCCN1CCCCC1,7
3,COc1ccc(NC(=O)CN2CC=C(c3ccccc3)CC2)cc1S(=O)(=O)N1CCOCC1,-12.7
4,Cc1csc(NC(=O)c2cc3ccccc3o2)n1,2.94
5,Cc1nc2nc(-c3ccco3)nn2c(C)c1Cl,9.1
6,CC(=O)Nc1ccc(S(=O)(=O)Nc2ccccc2N2CCOCC2)cc1,2.6
7,CC1(C(=O)NCc2ccc(Cl)c(Cl)c2)Oc2cccnc2NC1=O (stereo not drawn),-45.3
8,O=c1ncn(-c2cccc(Cl)c2)c2ccccc12,-13.7
9,COc1cccc(C(=O)N(c2ccc(C)cc2)C2C=CS(=O)(=O)C2)c1 (stereo not drawn),5.2
10,CSc1ccccc1OCc1cc(C(=O)N2CCCC(C)C2)no1 (stereo not drawn),-0.622
11,O=C(CCNS(=O)(=O)c1ccccc1C(F)(F)F)N1CCCCCCC1,-11.6
12,CCOC(=O)COc1ccc(C(=O)c2ccccc2)c(O)c1,14.8
13,COC(=O)c1sccc1-n1cccc1C(=O)C(=O)Nc1ccc(F)cc1,-13.5
14,Cc1cc(NO)nc(-c2ccc(Br)cc2)n1,2.74
15,COc1ccc(N(C)C(=O)c2cn(CC(C)C)c(=O)c3cc(OC)c(OC)cc23)cc1,8.8
16,COCCCNC(=O)c1cc2c(s1)CS(=O)(=O)C2,-1.4
17,O=S(=O)(Cc1ccc(Cl)cc1)N1CCN(Cc2ccc3c(c2)OCO3)CC1,-4.23
18,COC(=O)c1cc(NC(=O)c2ccc(C)cc2)c(=O)oc1C,20.9
19,CCn1nc(NC(=O)c2ccco2)c2cc3cc(C)ccc3nc21,12.3

row,Compound,"hERG current change (%, negative = inhibition) at 10uM [%]"
1,C/C(=N\Nc1nncc2ccccc12)c1ccc(O)cc1,7.36
2,Cc1ccc(CNC(=O)Cn2ccc(NC(=O)OCc3ccccc3)nc2=O)o1,2.29
3,COc1ccccc1NC(=O)C1=C(C)Nc2nc(CCCO)nn2C1c1ccc2c(c1)OCO2 (stereo not drawn),7.42
4,Cc1cc(C)cc(N2CC(C(=O)O)CC2=O)c1 (stereo not drawn),22.1
5,CC1=C(C(=O)OC(C)C)C(c2ccc(Br)s2)NC(=O)N1 (stereo not drawn),-48
6,CCOc1ccc(C(C)=O)cc1CN1C(=O)NC2(CCCCCCC2)C1=O,-46.5
7,O=C(Cc1ccccc1)Nc1ccc2c(c1)C(=O)N(CC1CCCO1)C2=O (stereo not drawn),-4.72
8,Cc1ccc2cc(C)c(NCCO)nc2c1,-3.56
9,COc1ccccc1N1CCN(C(=O)c2cc3c(=O)n4ccccc4nc3s2)CC1.Cl,-53.2
10,CC(=O)Nc1sc(C)c(C)c1C(=O)OCC(=O)N(C)c1c(N)n(Cc2ccccc2)c(=O)[nH]c1=O,0.508
11,O=C(NCc1ccccn1)c1ccc(Cn2c(=S)[nH]c3ccccc3c2=O)cc1,6.45
12,CSc1nc2[nH]c3c(c2c2ncnn12)CCCC3,-3.68
13,O=S(=O)(c1ccccc1)c1cnn2c(C(F)(F)F)cc(-c3ccccc3)nc12,-8.9
14,CCOC(=O)N1CCN(C(=O)c2ccc(CS(=O)(=O)c3ccc(OC)cc3)o2)CC1,-16
15,O=C(Nc1ccc(Cl)cc1Cl)c1ccc(-c2ccccc2)cc1,14.4
16,Cc1cccc(CC(C)NC(=O)CCc2nnc(-c3ccccc3)o2)n1 (stereo not drawn),0.407
17,COc1ccc(OC)c(NC(=O)CSc2nnc(C3CCCCC3)o2)c1,-19
18,CCOC(=O)N1CCN(C(=S)NC2CCCCC2)CC1,-14.4
19,FC(F)(F)c1cccc(NC(=S)NNC(=S)NCc2ccccc2)c1,19.3

row,Compound,"hERG current change (%, negative = inhibition) at 10uM [%]"
1,CCn1cc(C(=O)OCc2ccccc2)c(=O)c2ccc(C)nc21,-16.8
2,Cc1ccc(C(=O)c2cc([N+](=O)[O-])ccc2N2CC(C)OC(C)C2)cc1 (stereo not drawn),-0.127
3,O=C(CN(C(=O)CNC(=O)c1ccco1)c1ccccc1F)NC1CCCCC1,11.2
4,CCOC(=O)N1CCN(C(=O)/C(=C/c2ccc(Br)cc2)NC(=O)c2ccc(OC)cc2)CC1,-78.2
5,COc1cccc(Cn2nnc(C(=O)Nc3ccc(C)cc3)c2N)c1,17.9
6,Cc1ccccc1-c1nc2cc(N)ccc2o1,-15.6
7,CCOc1ccccc1CN1CCN(Cc2nc3c(s2)CCCC3)CC1CCO (stereo not drawn),-67.9
8,Cc1ccccc1C(=O)N1CCN(c2ccc(NC(=O)c3ccccc3[N+](=O)[O-])cc2)CC1,0.716
9,CCOC(=O)N1CCN(C(=O)c2cccc(OC)c2O)CC1,-4.53
10,CN(c1ccc(C(=O)Nc2cccnc2)cc1)S(=O)(=O)c1ccccc1,-14.9
11,O=C(CN1CCOCC1)Nc1ccc2c(c1)CCC2,8.21
12,CN1CCN(CCCNC(=O)CCN2C(=O)COc3ccccc32)CC1,0.334
13,C[C@H](NC(=O)c1nc[nH]c1C(=O)NCCCCCNC(=O)OC(C)(C)C)c1ccccc1,-22.3
14,CCOc1ccc(/C=N/NC(=O)c2nnn(-c3nonc3N)c2-c2ccc(OCC)cc2)cc1,8.86
15,CSc1cccc(NC(=O)CSc2ccccc2)c1,2.1
16,COC(=O)Cc1c(C)c2ccc(OC(=O)c3ccco3)cc2oc1=O,8.37
17,Cc1cc(-c2nnco2)c(C)n1-c1ccc(F)cc1,1.81
18,CCOc1cc(/C=N/NC(=O)COc2cccc(C)c2)ccc1OC(=O)c1cccs1,-0.972
19,COc1cccc(C2c3c(-c4ccccc4)n[nH]c3C(=O)N2c2ccc(C(=O)O)cc2)c1 (stereo not drawn),10.6

# Source: publication PMC4336329 (PLoS ONE, 2015)
